According to PubChem BioAssay (NCI):
“And” between values parts separate entries of the source, which are not always exact repeats. Identical values can stand only once.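 Each compound was tested at five concentrations against cells in 96-well plates for 48 hours. GI50 = concentration required for 50% inhibition of growth. At the TGI there is no net growth.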

What follows are compounds tested on NCI-H322M lung (assay: NCI tumour cell line growth inhibition, 48 h).

SMILES	TGI	GI50
O=Cc1c2c(cc3c1CC1(C3)Cc3cc4c(c(C=O)c3C1)CCCC4)CCCC2	> 31.6 µM	–
COC(=O)C(C(=O)C(=O)Nc1ccc(C)cc1)c1nc2ccc([N+](=O)[O-])cc2[nH]c1=O (stereo not given)	> 100 µM	–
CC(=O)O[C@@H]1[C@H](OC2CCCCC2(c2ccccc2)c2ccccc2)O[N+]([O-])=CC12CCCCC2 (stereo not given in full)	30.3 µM	–
O=[N+]([O-])c1cc(C2(N3CCCCC3)CCCCC2)sc1Br	25.7 µM	–
C=CC(=O)N[C@@H]1CN(c2nc(Nc3cn(C)nc3OC)c3ncn(C)c3n2)C[C@H]1F	20.8 µM	0.152 µM
C/C=C/CC(C(=O)OCC)(N(C)C(=O)OC(C)(C)C)S(=O)(=O)c1ccc(C)cc1 (stereo not given)	> 100 µM	–
C=C1C(=O)OC2C1CCC(=C)C1CC(O)C(=C)C12 (stereo not given)	67.9 µM	–
O=C(Nc1ccc(OS(=O)(=O)c2ccc(F)cc2)cc1)C12CC3CC(CC(C3)C1)C2	> 100 µM	12.9 µM
CC(=O)Nc1ccccc1-c1nc2ccccc2nc1-c1ccccc1	> 100 µM	–
CC1=C(C(=O)NNC(=O)Cc2ccccc2)CC(C(=O)NNC(=O)Cc2ccccc2)=C(C)N1	> 100 µM	–
CCOC(=O)Cc1c(C)c2ccc(OC(C)=O)c(OC(C)=O)c2oc1=O	89 µM	–
C[C@@H](O)[C@@H](C)Oc1nc(Nc2ccc(S(=N)(=O)C3CC3)cc2)ncc1C(F)(F)F (stereo not given in full)	2.88 µM	0.0316 µM
COc1ccc2[nH]c3cc4c(=O)c5cc(OC)ccc5[nH]c4cc3c(=O)c2c1	> 100 µM	–
O/N=C1/CCCC/C1=C/C=C/c1ccccc1	74.7 µM	–
O=C1c2c(O)cccc2C(C(=O)CCCCCC(=O)C2c3cccc(O)c3C(=O)c3c(O)cccc32)c2cccc(O)c21	12.8 µM and 32.4 µM	6.08 µM
Cc1cccc(C(C)(C)C)c1NC(=O)C(C#N)C1=C(Cl)C(=O)c2ccccc2C1=O (stereo not given)	38.9 µM	–
CC(=O)NNc1nc(C)c(C(=O)NNC(=O)C(=O)Nc2ccc(Cl)c([N+](=O)[O-])c2)s1	> 100 µM	–
CCC(=O)OC1CCn2c1nc1c2C(=O)C(C)=C(NC(C)=O)C1=O (stereo not given)	18.5 µM	–
O=C(CCC(=O)Nc1ccccc1C(F)(F)F)N/N=C1\C(=N\NC(=O)CCC(=O)Nc2ccccc2C(F)(F)F)C(c2ccc3c(c2)OCO3)Oc2ccccc21 (stereo not given)	> 100 µM	–
COc1ccccc1-n1cnc2c1NC(C)(C)N=C2C(N)=O	> 100 µM	–
O=C(Nc1ccccc1)c1cc2ccccc2c(N=Nc2cccc([N+](=O)[O-])c2)c1O	> 100 µM	–
Cc1ccc(S(=O)(=O)NC(=O)C2S(=O)(=O)OCCOS2(=O)=O)cc1	> 100 µM	–
C[N+]1=C(c2cccnc2/C=N/O)OCC1(C)C	> 100 µM	–
CCOC(=O)COc1cc(-c2ccccc2F)nc2cc3c(cc12)OCO3	> 100 µM	–
C/C(=N\Nc1ccccc1)c1sc(-c2nc(C)c(/C(C)=N/Nc3ccccc3)s2)nc1C	96.9 µM	–

SMILES	TGI	GI50
Nc1n[n+]([O-])c2cc([N+](=O)[O-])ccc2[n+]1[O-]	64.2 µM	–
N=c1c2sc3nc4ccccc4n3c2ncn1Cc1ccccc1	> 100 µM	–
CC1=C(C(=O)Nc2cccc(Cl)c2)C(c2ccccc2O)C(C(=O)Nc2cccc(Cl)c2)=C(C)N1	48.2 µM	–
O=C1c2ccccc2N=C(c2cc3c(cc2Cl)Sc2nccn2S3(=O)=O)OS(=O)(=O)N1c1ccccc1	> 100 µM	–
CC1CC(=O)Nc2ccc(Cl)cc2N1C(=O)CN1CCC(CCCCN(C)C)CC1 (stereo not given)	> 100 µM	–
CN(C)c1ccc(/C=C/C(=O)c2ccc(Nc3nc(Nc4ccc(F)cc4)nc(Nc4ccc(F)cc4)n3)cc2)cc1	> 100 µM	32.8 µM
O=C(CCc1nc(=S)[nH][nH]1)Nc1cc(Cl)ccc1Cl	> 100 µM	–
CC1CC(C[N+](=O)[O-])CC2(C1)OCCO2 (stereo not given)	> 100 µM	–
O=c1oc2cc(O)ccc2c2[nH]c3cc(O)ccc3c12	87.4 µM	–
CC1(C)OB(c2ccc(N(CCOS(C)(=O)=O)CCOS(C)(=O)=O)cc2)OC1(C)C	> 100 µM	46.4 µM
C/C(=C1/N=C(c2cc([N+](=O)[O-])ccc2Cl)N(c2ccc(Br)cc2)C1=O)c1ccc(N(CCC#N)CCC#N)cc1C	> 100 µM	–
CC(Oc1cc2oc(=O)cc(-c3ccccc3)c2cc1Cl)C(=O)O (stereo not given)	> 100 µM	–
Cc1nnc(C[C@@H]2C=C(c3ccc(Cl)cc3)c3ccccc3-n3c(C)nnc32)o1	> 100 µM	2.28 µM
Cc1sc2c(c1C)C(=O)c1cccn1-2	> 100 µM	–
NC(N)=NN=c1c(=O)c2ccccc2c1=O	31.6 µM	17.5 µM
C[C@H]1CCC/C=C/C2CC(OC(=O)CN(C)C)CC2C(OC(=O)CN(C)C)/C=C/C(=O)O1 (stereo not given in full)	15.5 µM	0.565 µM
CCCCC(C(=O)C(=O)Nc1ccc(C)cc1C)C(=O)C(C)C (stereo not given)	> 100 µM	–
COc1ccccc1C1C2=C(COC2=O)Oc2cc3c(cc21)OCO3 (stereo not given)	> 69.5 µM	–
Cc1cccc2c(N)c3cccc(C(=O)NCC[N+](C)(C)Cc4ccc([N+](=O)[O-])n4C)c3nc12	70.9 µM	–
O=C(NCCCCCCCCCCCCNC(=O)c1cnc2ccccc2n1)c1cnc2ccccc2n1	> 100 µM	–
O=[N+]([O-])c1ccc(CSc2nn(Cc3ccc([N+](=O)[O-])cc3)cc3ncnc2-3)cc1	> 100 µM	–
CCCCCC/C=C/C#CCCCCCCCC(=O)O	> 100 µM	–
CC(NC(=O)Cc1ccc(OP(=O)(OCc2ccc([N+](=O)[O-])o2)N(C)CCCCCl)cc1)c1ccc(OCC2CCCCC2)c(C(N)=O)c1 (stereo not given)	7.71 µM	–
C=C1CC[C@@]2(C)[C@@H]([C@@H]1C)[C@H]1CC[C@@H]3[C@@]4(C)CC[C@H](O)C(C)(C)[C@@H]4CC[C@@]3(C)[C@]1(C)C[C@@H]2O	5.54 µM	–
O=C1/C(=C/c2cccnc2)SC(=S)N1Cc1ccco1	> 100 µM	–

SMILES	TGI	GI50
Nc1nc(=O)n(C2CC(O)C(CO)O2)cc1F (stereo not given)	> 100 µM	> 71.5 µM
O=c1oc2ccc([N+](=O)[O-])cc2nc1/C=C(\O)c1ccccc1	> 100 µM	–
CCOC(=O)NN(C(=O)OCC)c1ccc(N=Nc2ccc(OC)cc2)n1C	98 µM	–
CC12NC(=C(C#N)C#N)C(C#N)=C3NC(N)=C(C#N)C(=C31)Oc1ccccc12 (stereo not given)	> 100 µM	–
CC(C)C[S+]1C2=C([O-])CC(C)(C)CC2=Nc2ccccc21 (stereo not given)	> 100 µM	–
Clc1ccc(Nc2ncco2)cc1Cl	> 10 µM	–
CC1(CO)C(O)CCC2(C)C1CCC1CC3CC12CCC3(O)CO (stereo not given)	> 100 µM	–
c1ccc(-c2csc3c2-n2cccc2C3N2CCCC2)cc1 (stereo not given)	> 100 µM	–
CC12Nc3ccccc3C1=C(c1ccccc1)CC1C(=O)OC(=O)C12 (stereo not given)	> 100 µM	–
CC(=N/NC(=S)N1CCCCCC1)/C(C)=N\NC(=S)N1CCCCCC1	11.6 µM	–
CCCCn1c(-c2ccccc2)cs/c1=N\N=C1C=C(C(C)(C)C)C(=O)C(C(C)(C)C)=C1	> 100 µM	–
CCOC(=O)/C(Br)=C1\OC(=O)c2ccccc2-c2ccccc21	> 100 µM	–
NC1=NN(c2ccccc2)C(=O)C1C(=O)C(=O)Nc1ccc(Cl)cc1 (stereo not given)	> 100 µM	–
O=C(N/N=C(/COc1ccccc1)N=Cc1ccncc1)c1ccncc1	> 100 µM	–
O=C(COc1ccc(/C=C2\Oc3ccc4ccccc4c3C2=O)cc1)c1ccc([N+](=O)[O-])cc1	> 100 µM	88.9 µM
CCOC(=O)/C(=C/CC/C(C)=C/CC/C(C)=C/CCc1ccoc1)CC(=O)N1CCCCC1	4.08 µM	1.95 µM
CN1C(=O)c2ccccc2C(O)(c2ccccc2)C1(O)c1ccccc1 (stereo not given)	> 100 µM	–
CC[C@H](C)[C@H](NC(=O)N(CCC#N)CCN(CCN(C(=O)N[C@@H](Cc1ccccc1)C(=O)OC)c1ccccc1)C(=O)N[C@H](C(=O)OC)C(C)C)C(=O)OC	33.6 µM	–
Cc1ccc2nc(N)[nH]c(=O)c2c1Sc1ccncc1	> 100 µM	–
COc1ccc(C(=O)/C=C/c2sc(Cl)nc2Cl)cc1	10.7 µM	2.97 µM
Cc1nc2ccccn2c1NC(=O)NN1C(=O)CSC1c1ccc(Cl)cc1 (stereo not given)	> 100 µM	> 100 µM
O=S(=O)(C1=CC(S(=O)(=O)c2ccccc2)COC1)c1ccccc1 (stereo not given)	> 100 µM	–
CCN(C(=O)N1CCN(c2cc3c(cc2F)c(=O)c(C(=O)O)cn3C2CC2)CC1)c1nc(-c2ccccc2)cs1	> 100 µM	2.86 µM
CC(=O)c1ccc(N2C(=O)C3c4[nH]c5ccccc5c4C4CCC(C(C)(C)C)CC4C3C2=O)cc1 (stereo not given)	> 100 µM	–
c1ccc2c(c1)nnn2CNc1ccc(N2CCCCC2)cc1	> 100 µM	–

SMILES	TGI	GI50
COc1ccc(-c2nc(-c3ccc(OC)cc3)n(-c3ccccc3)n2)cc1	> 100 µM	–
C[C@@H]1CC[C@H]2[C@@H](C)C(O)O[C@@H]3O[C@]4(C)CC[C@@H]1[C@]32OO4 (stereo not given in full)	> 100 µM	13.1 µM
O=C1CC(c2ccc(Cl)cc2)C2(C(=O)NC(=S)NC2=O)C(c2ccc(Cl)cc2)C1 (stereo not given)	37.3 µM	–
COc1c(C)c(C/C=C(\C)CC/C=C(\C)CC/C=C(\C)CCC=C(C)C)c(OC)c(OC)c1OC	> 100 µM	–
Cc1cc(C)cc(Nc2nnc3n2S(=O)(=O)c2cc(C)c(Cl)cc2S3)c1	60.5 µM	–
CNC(=O)c1cc(Oc2ccc3nc(NC(=O)Nc4ccc(CN5CCOCC5)c(C(F)(F)F)c4)sc3c2)ccn1	7.2 µM	2.33 µM
c1ccc2c(c1)[nH]c1cnc3c4ncccc4[nH]c3c12	> 100 µM	–
O=C(O)c1cc(N=Nc2ccc([N+](=O)[O-])cc2)ccc1O	> 100 µM	–
Cc1ccc2c(c1)[n+](=O)c(C(=O)c1cccs1)c(C(F)(F)F)n2[O-]	3.07 µM and 7.2 µM	0.886 µM and 0.836 µM
CC/C=C\C[C@H]1C/C=C2/C(=O)C=C[C@H]2C/C=C\CCCC(=O)O1	11.5 µM	5.34 µM
CC(=O)N1C(C(=O)NN2CCOCC2)CSC1c1ccccc1 (stereo not given)	> 100 µM	–
Cc1ccccc1NC(=O)CC1C(=O)Nc2ccccc2S1=O (stereo not given)	> 100 µM	–
COc1ccc2[nH]c(Cl)c(/C=C3/C(=O)Nc4ccccc43)c2c1	13.7 µM	4.69 µM
Cc1c2cnccc2c(C)c2c1c1cc(O)ccc1n2C(C)C	4.83 µM	0.633 µM
Cc1ccc(Nc2c3c(c(C#N)c4nc5ccccc5n24)CCCC3)cc1	> 100 µM	–
Cc1nc2cn3c(c2c(=O)[nH]1)CCCCC3	> 100 µM	–
Cc1ccccc1/C=C/c1csnn1	> 100 µM	–
Cc1cc2c(cc1Cl)SC(N(c1ccccc1Cl)S(=O)(=O)c1ccc(Br)s1)=NS2(=O)=O	> 100 µM	31.6 µM
CN(C)CCCNC(=O)N/N=C/c1ccc(O)cc1	> 100 µM	–
Cc1ccc2nc(NC(=O)C(=O)C(C(=O)c3ccc4ccccc4c3)C3OC(=O)c4ccccc43)sc2c1 (stereo not given)	91.7 µM	–
Oc1ccc(-c2c3ccccc3c(-c3ccc(O)cc3)c3ccccc23)cc1	> 100 µM	–
COC(CNC(=O)CNC(=O)c1ccc(C(F)(F)F)cc1)OC	> 100 µM	–
[N-]=[N+]=CC(=O)C1(C(=O)C=[N+]=[N-])CC1	> 100 µM	–
